Where a chain is given by its changes, count along the chain named. Results are given in words; binding and its absence hold for the method and conditions named. Binding seen in cells or lysates may run through a third protein. Some entries that bind do so weakly or less than the wild type. Where a sequence is shown, tags or fusion partners need not be part of it.
Assays:
[1] = biological target: T1, FLAG-tagged IRAK2 KK235AA (mouse) (UniProt Q8CFA1); assay: proximity ligation; HeLa cells transfected with HA-tagged SRSF1 and FLAG-tagged IRAK2 WT or mutants; mouse anti-HA and rabbit anti-FLAG; Duolink In Situ Green Kit; fixed, permeabilised cells
T1 sequence: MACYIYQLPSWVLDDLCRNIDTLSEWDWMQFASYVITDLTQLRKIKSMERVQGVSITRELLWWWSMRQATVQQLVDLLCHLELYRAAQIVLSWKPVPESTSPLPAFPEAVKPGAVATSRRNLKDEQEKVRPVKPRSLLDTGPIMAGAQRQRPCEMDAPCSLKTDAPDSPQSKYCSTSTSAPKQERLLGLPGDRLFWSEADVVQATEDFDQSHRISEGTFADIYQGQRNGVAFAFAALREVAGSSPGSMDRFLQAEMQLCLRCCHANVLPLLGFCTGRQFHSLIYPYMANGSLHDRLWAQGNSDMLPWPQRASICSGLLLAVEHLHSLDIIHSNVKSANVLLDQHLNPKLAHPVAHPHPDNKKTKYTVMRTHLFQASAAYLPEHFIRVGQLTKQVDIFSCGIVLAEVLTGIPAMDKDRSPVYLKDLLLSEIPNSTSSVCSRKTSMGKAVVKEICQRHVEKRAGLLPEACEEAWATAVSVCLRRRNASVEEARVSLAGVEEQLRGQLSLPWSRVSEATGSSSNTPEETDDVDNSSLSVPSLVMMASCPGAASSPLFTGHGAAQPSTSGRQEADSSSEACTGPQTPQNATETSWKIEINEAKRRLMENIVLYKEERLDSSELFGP

Amino acid sequences for entries named in this document (tags omitted).
UniProt Q6PDM2: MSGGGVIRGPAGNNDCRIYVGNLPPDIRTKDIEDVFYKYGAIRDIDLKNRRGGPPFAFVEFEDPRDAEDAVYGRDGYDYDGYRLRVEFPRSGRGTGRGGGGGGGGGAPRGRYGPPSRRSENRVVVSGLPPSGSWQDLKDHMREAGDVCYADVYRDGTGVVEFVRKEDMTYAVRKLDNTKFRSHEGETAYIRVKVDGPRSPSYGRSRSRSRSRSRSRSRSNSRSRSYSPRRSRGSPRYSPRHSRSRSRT
UniProt P49792: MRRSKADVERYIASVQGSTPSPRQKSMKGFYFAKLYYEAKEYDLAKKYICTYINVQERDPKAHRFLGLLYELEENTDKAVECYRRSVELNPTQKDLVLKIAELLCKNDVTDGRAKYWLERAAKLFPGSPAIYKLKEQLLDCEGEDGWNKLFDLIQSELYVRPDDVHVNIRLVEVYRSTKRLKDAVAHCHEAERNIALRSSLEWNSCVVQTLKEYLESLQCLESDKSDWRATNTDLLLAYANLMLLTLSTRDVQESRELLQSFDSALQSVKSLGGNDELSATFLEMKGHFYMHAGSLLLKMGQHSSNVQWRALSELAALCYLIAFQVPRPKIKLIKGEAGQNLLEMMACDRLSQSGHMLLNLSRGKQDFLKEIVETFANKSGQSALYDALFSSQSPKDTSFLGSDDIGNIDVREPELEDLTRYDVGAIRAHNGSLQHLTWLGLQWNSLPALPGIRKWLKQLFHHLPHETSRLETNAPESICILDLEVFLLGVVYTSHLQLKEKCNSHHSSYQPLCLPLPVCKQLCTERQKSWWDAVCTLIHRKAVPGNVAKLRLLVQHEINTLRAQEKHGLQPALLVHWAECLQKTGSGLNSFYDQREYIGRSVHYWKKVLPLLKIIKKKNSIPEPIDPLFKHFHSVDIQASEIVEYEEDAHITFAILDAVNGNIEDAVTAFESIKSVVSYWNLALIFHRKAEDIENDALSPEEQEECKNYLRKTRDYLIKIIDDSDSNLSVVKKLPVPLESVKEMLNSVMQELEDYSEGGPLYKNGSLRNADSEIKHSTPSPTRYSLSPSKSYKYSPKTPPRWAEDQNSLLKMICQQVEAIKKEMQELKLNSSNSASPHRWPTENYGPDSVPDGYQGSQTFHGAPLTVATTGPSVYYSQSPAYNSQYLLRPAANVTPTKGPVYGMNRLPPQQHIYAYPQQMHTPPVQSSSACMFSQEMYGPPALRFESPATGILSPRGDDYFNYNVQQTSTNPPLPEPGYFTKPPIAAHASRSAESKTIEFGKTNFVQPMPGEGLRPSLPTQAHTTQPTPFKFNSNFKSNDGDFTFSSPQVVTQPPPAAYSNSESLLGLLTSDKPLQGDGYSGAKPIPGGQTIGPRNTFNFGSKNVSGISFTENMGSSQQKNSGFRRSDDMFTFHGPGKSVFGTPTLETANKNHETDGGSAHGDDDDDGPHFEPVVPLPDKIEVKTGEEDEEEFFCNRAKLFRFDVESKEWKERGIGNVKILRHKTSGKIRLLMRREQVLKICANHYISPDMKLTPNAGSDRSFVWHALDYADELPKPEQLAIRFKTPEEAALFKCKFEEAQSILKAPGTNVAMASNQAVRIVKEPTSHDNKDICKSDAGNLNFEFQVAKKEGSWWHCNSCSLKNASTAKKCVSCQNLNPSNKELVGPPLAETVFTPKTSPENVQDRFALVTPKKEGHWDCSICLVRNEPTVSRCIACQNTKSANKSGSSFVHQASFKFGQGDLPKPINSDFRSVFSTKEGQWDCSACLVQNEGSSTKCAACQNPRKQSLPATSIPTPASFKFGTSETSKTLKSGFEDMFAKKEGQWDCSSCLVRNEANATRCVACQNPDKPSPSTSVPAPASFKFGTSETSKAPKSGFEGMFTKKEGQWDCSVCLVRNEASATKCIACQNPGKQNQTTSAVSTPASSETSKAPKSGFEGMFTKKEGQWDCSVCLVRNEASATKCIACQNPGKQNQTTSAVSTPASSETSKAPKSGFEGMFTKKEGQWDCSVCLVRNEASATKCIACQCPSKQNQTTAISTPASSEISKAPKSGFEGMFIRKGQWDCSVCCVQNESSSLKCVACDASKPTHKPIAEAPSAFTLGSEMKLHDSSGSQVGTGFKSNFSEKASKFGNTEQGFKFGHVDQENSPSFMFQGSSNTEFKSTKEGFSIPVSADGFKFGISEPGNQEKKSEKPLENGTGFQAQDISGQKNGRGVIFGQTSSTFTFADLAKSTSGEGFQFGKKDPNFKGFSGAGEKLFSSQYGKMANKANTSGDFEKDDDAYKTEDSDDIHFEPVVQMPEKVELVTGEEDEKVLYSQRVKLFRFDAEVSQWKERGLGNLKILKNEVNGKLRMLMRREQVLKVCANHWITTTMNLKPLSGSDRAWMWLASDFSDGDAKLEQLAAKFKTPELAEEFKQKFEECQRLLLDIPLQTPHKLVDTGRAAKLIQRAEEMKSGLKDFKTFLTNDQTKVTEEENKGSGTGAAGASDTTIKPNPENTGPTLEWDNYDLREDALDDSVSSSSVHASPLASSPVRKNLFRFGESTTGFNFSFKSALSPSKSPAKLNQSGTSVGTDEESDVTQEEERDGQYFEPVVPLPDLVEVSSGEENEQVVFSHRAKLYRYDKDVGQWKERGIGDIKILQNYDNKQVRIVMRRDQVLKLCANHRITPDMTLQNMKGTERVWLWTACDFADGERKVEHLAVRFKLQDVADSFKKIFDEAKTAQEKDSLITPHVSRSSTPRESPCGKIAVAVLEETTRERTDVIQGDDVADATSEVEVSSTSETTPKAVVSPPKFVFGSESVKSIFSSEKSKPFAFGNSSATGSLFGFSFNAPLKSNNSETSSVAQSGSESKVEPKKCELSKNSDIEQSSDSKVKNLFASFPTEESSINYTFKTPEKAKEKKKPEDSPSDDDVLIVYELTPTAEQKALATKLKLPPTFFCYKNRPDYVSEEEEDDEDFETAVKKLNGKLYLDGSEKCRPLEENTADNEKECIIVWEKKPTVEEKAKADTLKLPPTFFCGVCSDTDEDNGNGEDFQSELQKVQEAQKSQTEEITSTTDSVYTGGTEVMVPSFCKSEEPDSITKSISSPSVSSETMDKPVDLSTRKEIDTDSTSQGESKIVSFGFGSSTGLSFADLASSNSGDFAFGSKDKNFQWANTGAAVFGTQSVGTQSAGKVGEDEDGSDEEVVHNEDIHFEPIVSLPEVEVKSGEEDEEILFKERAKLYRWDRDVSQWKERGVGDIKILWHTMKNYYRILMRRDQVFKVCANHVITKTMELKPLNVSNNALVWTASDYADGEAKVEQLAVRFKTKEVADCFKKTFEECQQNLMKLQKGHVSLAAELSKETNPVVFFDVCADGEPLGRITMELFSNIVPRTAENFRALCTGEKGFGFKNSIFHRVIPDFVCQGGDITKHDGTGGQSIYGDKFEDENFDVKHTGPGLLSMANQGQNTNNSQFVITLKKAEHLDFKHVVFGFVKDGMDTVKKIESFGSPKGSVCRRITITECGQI
UniProt Q14974: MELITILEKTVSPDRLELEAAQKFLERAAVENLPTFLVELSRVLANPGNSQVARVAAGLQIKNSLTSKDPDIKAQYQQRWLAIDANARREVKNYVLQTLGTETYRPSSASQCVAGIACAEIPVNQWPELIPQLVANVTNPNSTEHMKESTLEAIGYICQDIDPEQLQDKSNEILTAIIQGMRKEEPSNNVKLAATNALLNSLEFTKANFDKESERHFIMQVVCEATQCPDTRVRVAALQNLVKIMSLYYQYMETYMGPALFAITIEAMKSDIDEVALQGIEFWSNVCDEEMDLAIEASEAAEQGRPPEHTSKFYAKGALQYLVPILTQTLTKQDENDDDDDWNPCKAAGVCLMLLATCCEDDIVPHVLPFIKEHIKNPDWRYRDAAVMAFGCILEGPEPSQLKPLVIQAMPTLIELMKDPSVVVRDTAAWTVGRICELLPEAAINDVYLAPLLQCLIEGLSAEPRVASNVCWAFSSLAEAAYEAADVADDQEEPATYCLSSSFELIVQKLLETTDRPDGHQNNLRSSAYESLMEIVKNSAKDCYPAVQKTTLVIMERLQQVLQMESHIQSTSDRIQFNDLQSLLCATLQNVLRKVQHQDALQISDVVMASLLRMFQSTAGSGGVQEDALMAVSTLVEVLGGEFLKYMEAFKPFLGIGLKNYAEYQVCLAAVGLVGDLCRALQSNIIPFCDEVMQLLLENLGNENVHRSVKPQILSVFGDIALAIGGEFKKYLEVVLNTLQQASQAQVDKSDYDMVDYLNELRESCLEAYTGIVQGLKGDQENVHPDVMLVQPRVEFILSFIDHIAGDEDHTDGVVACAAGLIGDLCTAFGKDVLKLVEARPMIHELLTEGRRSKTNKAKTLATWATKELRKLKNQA

[2] = biological target: T2, FLAG-tagged IRAK2 Sumo mutant (K123/182/592R) (mouse) (UniProt Q8CFA1); assay: as above
T2 sequence: T1 sequence with K123R, K182R, A235K, A236K, K592R

[3] = biological target: T3, FLAG-tagged IRAK2 WT (mouse) (UniProt Q8CFA1); assay: as above
T3 sequence: T1 sequence with A235K, A236K

[4] = biological target: T4, FLAG-tagged IRAK2 H351A (mouse) (UniProt Q8CFA1); assay: co-IP; HeLa cells transiently transfected with FLAG-tagged IRAK2 WT or mutants; IP with anti-FLAG; western blot for endogenous proteins; lysis buffer 0.5% Triton X-100, 20 mM Hepes pH 7.4, 150 mM NaCl
T4 sequence: T1 sequence with A235K, A236K, H351A

[5] = biological target: T1, FLAG-tagged IRAK2 KK235AA (mouse); assay: as above
[6] = biological target: T5, FLAG-tagged IRAK2 N333A (mouse) (UniProt Q8CFA1); assay: as above
T5 sequence: T1 sequence with A235K, A236K, N333A

[7] = biological target: T6, FLAG-tagged IRAK2 NLS mutant (K361/362/364A) (mouse) (UniProt Q8CFA1); assay: as above
T6 sequence: T1 sequence with A235K, A236K, K361A, K362A, K364A

[8] = biological target: T3, FLAG-tagged IRAK2 WT (mouse); assay: as above
[9] = biological target: T7, FLAG-tagged IRAK2 S136A/T140A double mutant (mouse) (UniProt Q8CFA1); assay: as above
T7 sequence: T1 sequence with S136A, T140A, A235K, A236K

Row | binding [1] | binding [2] | binding [3] | binding [4] | binding [5] | binding [6] | binding [7] | binding [8] | binding [9] | Substance
1 | no binding | no binding | binds |  |  |  |  |  |  | HA-tagged SRSF1 (from UniProt Q6PDM2 1-248)
2 |  |  |  | no binding | no binding | no binding | no binding | binds |  | RanBP2 (from UniProt P49792 1-3224)
3 |  |  |  | binds | binds | binds | no binding | binds | binds | importin-β (from UniProt Q14974 1-876)

Source: publication PMC5675595
